# Publication PMC4336329 (PLoS ONE, 2015)
# Hit rate of the full screen: of about 310,000 compounds, about 14,000 (4.5%) showed an effect of 50% or more. The effect is printed as a negative number. The list shows a part of the results.
# Molecular target: human ether-à-go-go-related gene (hERG) potassium channel (human, UniProt Q12809)
# Assay: primary screen, population patch clamp on CHO cells stably expressing hERG
# 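Further: peak tail current of the secondary pulse compared with the same well before compound.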
# Chain of human ether-à-go-go-related gene (hERG) potassium channel (Q12809 whole entry, looked up): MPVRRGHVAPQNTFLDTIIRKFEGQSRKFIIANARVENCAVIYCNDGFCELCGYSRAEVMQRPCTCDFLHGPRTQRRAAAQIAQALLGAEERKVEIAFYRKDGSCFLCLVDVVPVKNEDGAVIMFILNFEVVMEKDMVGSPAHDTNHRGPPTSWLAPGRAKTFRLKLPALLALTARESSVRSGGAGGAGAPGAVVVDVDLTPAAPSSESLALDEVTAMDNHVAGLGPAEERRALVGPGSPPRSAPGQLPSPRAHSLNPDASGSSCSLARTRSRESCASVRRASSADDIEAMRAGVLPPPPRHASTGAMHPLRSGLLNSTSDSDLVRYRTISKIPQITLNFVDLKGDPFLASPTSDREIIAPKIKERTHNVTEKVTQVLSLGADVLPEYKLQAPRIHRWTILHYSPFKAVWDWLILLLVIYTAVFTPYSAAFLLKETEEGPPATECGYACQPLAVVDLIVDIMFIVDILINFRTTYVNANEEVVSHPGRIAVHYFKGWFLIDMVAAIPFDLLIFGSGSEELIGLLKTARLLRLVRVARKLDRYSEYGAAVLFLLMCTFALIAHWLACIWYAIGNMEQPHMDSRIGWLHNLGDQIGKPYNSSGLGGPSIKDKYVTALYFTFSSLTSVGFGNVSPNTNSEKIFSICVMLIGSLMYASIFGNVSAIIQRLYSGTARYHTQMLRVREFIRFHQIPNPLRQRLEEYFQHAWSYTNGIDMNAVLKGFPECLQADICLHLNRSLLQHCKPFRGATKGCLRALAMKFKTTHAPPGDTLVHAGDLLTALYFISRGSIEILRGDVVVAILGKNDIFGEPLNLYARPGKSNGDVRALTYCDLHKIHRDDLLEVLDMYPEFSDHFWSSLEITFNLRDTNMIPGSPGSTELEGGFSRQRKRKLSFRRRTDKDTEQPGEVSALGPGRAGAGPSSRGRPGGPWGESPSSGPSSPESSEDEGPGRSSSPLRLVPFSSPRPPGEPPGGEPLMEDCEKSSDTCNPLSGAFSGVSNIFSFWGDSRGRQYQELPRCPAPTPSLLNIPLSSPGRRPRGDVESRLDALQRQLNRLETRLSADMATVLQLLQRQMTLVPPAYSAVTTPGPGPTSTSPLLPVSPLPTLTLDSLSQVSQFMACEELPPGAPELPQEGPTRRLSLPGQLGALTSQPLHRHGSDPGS
row,Structure (SMILES),"hERG current change (%, negative = inhibition) at 10uM [%]"
1,CCN(c1cccc(C)c1)S(=O)(=O)c1c(C)[nH]c(C)c1C(=O)N1CCCCC1,5.45
2,COc1ccccc1/C=c1\sc2nc(-c3ccco3)nn2c1=O,22.3
3,O=C(Nc1ccncc1)c1c(Cl)cccc1Cl,14.1
4,COc1ccc(/C=N/NC(=O)c2ccc3c(c2)NC(=O)C(C)(C)O3)cc1OC,-25.5
5,Cc1cccc(C)c1N(CC(=O)NC1CCCCC1)C(=O)c1csnn1,19.4
6,O=C(CCNC(=O)c1ccc(Br)cc1)Nc1ccccc1N1CCCC1,2.6
7,O=C(CSc1nnc(SCc2cccc3ccccc23)s1)N/N=C/C=C/c1ccccc1[N+](=O)[O-],-6
8,Cc1nn(Cc2ccccc2)c(C)c1NC(=O)c1cccs1,14
9,COc1ccc(Nc2nc(N)nc(CSC(=S)N3CCCCC3)n2)cc1,0.179
10,COC(=O)c1cc(OC)c(OC)cc1NC(=O)c1csc(C)c1,-29.2
11,CC(=O)CCc1oc2ccc(C)cc2c1-c1ccccc1,-38
12,COC(=O)C(C(=O)Nc1ncccn1)C1CCCCCC1 (stereo not shown),-2.91
13,Cc1ccc(-n2c(Cn3nc(C(F)(F)F)cc3C)n[nH]c2=S)cc1,19.4
14,COC(=O)Cc1ccc(N(Cc2ccccc2F)S(=O)(=O)c2ccc(Br)cc2)cc1,18.4
15,Cc1ccc(S(=O)(=O)NCc2nc3ccccc3c(=O)n2N)cc1,-7.71
16,Cc1csc(NC(=O)C(NC(=O)c2ccccc2F)C(C)C)n1 (stereo not shown),-8.88
17,CCc1cc2c(=O)nc3n(c2s1)Cc1ccccc1/C3=C(/O)c1ccccc1Cl,4.51
18,c1ccc(-n2cnc3cc(NCc4cccs4)ccc32)cc1,-21
19,O=C(O)CC(c1ccc(Br)cc1)N1Cc2ccccc2C1=O (stereo not shown),9.27
20,COc1ccc2nc(N3C(=O)CC(C(C)c4ccccc4)C3=O)sc2c1 (stereo not shown),-21
21,CC(=O)c1ccc(NC(=S)NC(=O)c2c(Cl)c(C)nn2C)cc1,-5.81
22,Cn1c(CO)cnc1-c1ccccc1,17.1

row,Structure (SMILES),"hERG current change (%, negative = inhibition) at 10uM [%]"
1,COc1ccc(C(=O)Nc2cc([N+](=O)[O-])ccc2N2CCCC2)cc1,-1.57
2,Cc1ccc(NC(=O)C(=O)Nc2ccccn2)cc1,1.88
3,CC[N+](CC)(CC#Cc1ccccc1)CC(=O)c1ccc(Cl)cc1,-60.3
4,CCN1CCCC1CNC(=O)c1ccc2c(c1)N(Cc1cccc(Cl)c1)C(=O)c1ccccc1S2(=O)=O (stereo not shown),-39.7
5,Cc1ccc(N2CC(C(=O)N3CCC(C(=O)Nc4cccc(Br)c4)CC3)CC2=O)cc1 (stereo not shown),-60.1
6,CCN(c1ccccc1)S(=O)(=O)c1ccc(NC(=O)c2ccco2)cc1,-18.2
7,CCNC(=S)NS(=O)(=O)c1ccc(CC)cc1,18.2
8,COc1cc2c(cc1NC(=O)c1cccc(S(=O)(=O)N(C)C)c1)oc1ccccc12,8.56
9,CCCn1c(C)cc(=O)c2cc(NC(=O)c3cnccn3)ccc21,-35.5
10,Cc1cc(C(=O)N/N=C/c2ccc([N+](=O)[O-])s2)n[nH]1,10.2
11,COc1ccc(-c2nn3c(=O)c(C)nnc3s2)cc1,17.6
12,CCCCCc1ccc(-c2cn(Cc3cccc(OC)c3)nn2)cc1,20.4
13,CCOCc1nnc(NC(=O)C2CC(=O)N(C3CCCC3)C2)s1 (stereo not shown),4.92
14,Cc1cccc(C)c1NC(=O)NC1(C(=O)NCCCN2CCOCC2)CCCCC1,6.43
15,NS(=O)(=O)c1ccc(NC(=O)COC(=O)c2c3c(nc4ccccc24)/C(=C\c2ccc4c(c2)OCO4)CCC3)cc1,2.38
16,CCC1CCc2sc(C(=O)NCC(c3ccc(OC)cc3)N3CCCC3)cc2C1 (stereo not shown),-71
17,Nc1ccc(-n2nncc2-c2ccco2)cc1,-1.01
18,CC(C)C[C@H](NC(=O)[C@@H]1Cc2ccccc2CN1)C(=O)Nc1ccc(C(C)C)cc1,-14.6
19,CSc1nccn1CC(=O)Nc1ccc(F)cc1,-0.384
20,Cc1ccc(C)c(OCCCC(=O)NC2CCCCC2)c1,6.91
21,CC(=O)Nc1ccc2c3c(cccc13)CC2,17.5
22,COc1ccc(NC(=O)Nc2ccccc2SC)cc1,9.99

row,Structure (SMILES),"hERG current change (%, negative = inhibition) at 10uM [%]"
1,COc1ccc(CCNC(=O)c2cc(-c3ccccc3)c(N3CCOCC3)s2)c(OC)c1OC,-0.505
2,COc1ccc(C(C)=O)cc1COC(=O)c1ccc2c(c1)OCCO2,13.4
3,O=c1oc2ccccc2c2oc3cc(O)c(O)cc3c12,-28.8
4,Cc1csc2ncc(C(=O)N3c4ccccc4CC3C)c(=O)n12 (stereo not shown),11.2
5,Cc1ccc2oc(=O)c(/C=C(\O)c3cccs3)nc2c1,9.84
6,NC(=O)CNC(=O)c1cccc(Cl)c1,18.6
7,Cc1nc2cc(-c3ccc(Cl)cc3)nn2c(C)c1CCC(=O)NCc1ccco1,-41.9
8,O=C(Nc1ccc(-c2csc(Nc3ccccc3)n2)cc1)c1cc([N+](=O)[O-])cc(C(F)(F)F)c1,-8.78
9,COc1ccc(C(=O)CCN2CCC(C)CC2)cc1.Cl,-30
10,COc1cccc(C2C(C#N)=C(N)OC3=C2C(=O)CC(c2ccco2)C3)c1OCc1ccc(F)cc1 (stereo not shown),4.07
11,Cc1ccc(S(=O)(=O)Cc2ccc(C(=O)O)o2)cc1,-6.05
12,Cc1cc(C)c2c(-n3cccc3)nn(C)c2n1,8.9
13,CC1CN(C(=O)COC(=O)c2c(Cl)cccc2Cl)CC(C)O1 (stereo not shown),6.73
14,COc1ccc(OC)c2sc(N3CCN(c4ccccc4)CC3)nc12,7.88
15,Cc1ccc(C(=O)NC(=S)NCc2cccnc2)cc1,-7.52
16,CC(C)(C)N1CC(c2nc3ccccc3n2Cc2ccc(F)cc2)CC1=O (stereo not shown),-36.7
17,COc1ccccc1C(O)(c1ccccc1)C(CN1CCOCC1)c1ccccc1.Cl (stereo not shown),-1.97
18,Cc1cc(/C=C(\C#N)C(=O)OCC(=O)Nc2ccc(OC(F)F)cc2)c(C)n1CC(C)C,-1.08
19,O=C(CSCC(=O)OCn1nnc2ccccc2c1=O)Nc1ccc(Cl)cc1,-3.73
20,COc1ccc(CNC(=O)c2cc(=O)c3cc(C)c(C)cc3o2)cc1,19.3
21,COc1ccc(C2CC(=O)c3c([nH]c(C(=O)OC(C)C)c3C)C2)cc1OC (stereo not shown),-3.77
22,Clc1ccccc1-c1nnc(-c2cccnc2)o1,1.46

row,Structure (SMILES),"hERG current change (%, negative = inhibition) at 10uM [%]"
1,O=C(CN1C(=O)C2CCCCN2C(=O)c2ccccc21)N1CCCc2ccccc21 (stereo not shown),6.8
2,CCc1nc(Nc2ccc(OC)c(OC)c2)c2nnn(Cc3ccccc3Cl)c2n1,8.6
3,CS(=O)(=O)N1N=C(c2ccc(Br)cc2)CC1c1cccs1 (stereo not shown),18.9
4,Cn1c(CBr)c(C(=O)c2ccc([N+](=O)[O-])cc2)c(=O)n(C)c1=O,-11
5,CC(NC(=O)CCN1C(=O)c2ccccc2S1(=O)=O)c1ccccc1 (stereo not shown),7.92
6,O=C(N/N=C/c1cccnc1)c1ccc(Cn2cc([N+](=O)[O-])cn2)o1,-8.7
7,CCN(CC)CCCNC(=O)c1nn2c(C(F)(F)F)cc(-c3ccccc3)nc2c1Cl,-29.3
8,CC(C)(C#N)Nn1cnnc1,17.1
9,O=C(CNC(=O)c1ccc(Br)o1)NNC(=O)COc1ccccc1Cl,-3.14
10,N/C(=N\OC(=O)COc1ccc(Br)cc1)c1cccc([N+](=O)[O-])c1,-15.4
11,CCO[C@H]1OC(C(=O)NCc2ccccc2)=C[C@@H](c2ccccc2)[C@@H]1CCCO,-19.6
12,Cc1ccc(-c2csc3nc(SCC(N)=O)n(Cc4ccccc4)c(=O)c23)cc1,-22.7
13,Cc1ccc(/C=N/NC(=O)CSc2nnc(-c3ccccc3)n2-c2ccc(Cl)cc2)o1,-21.8
14,Cc1cc(C(=O)COC(=O)c2ccc(O)cc2)c(C)n1CCc1ccc(F)cc1,-14
15,O=C(c1nc[nH]c1C(=O)N1CCc2ccccc2C1)N1CCc2ccccc2C1,16
16,NC1=NS(=O)(=O)NC1c1ccc(Cl)cc1 (stereo not shown),7.49
17,N#Cc1ccc(Sc2nc3ccccc3[nH]2)cc1C#N,-22.2
18,O=C(NCc1ccccn1)C1CCN(S(=O)(=O)N2CCCC2)CC1,-8.11
19,CCOC(=O)c1cccc(NC(=S)N2CCN(c3ncc4c(=O)c(C(=O)O)cn(CC)c4n3)CC2)c1,21.7
20,CCCn1nnc(NC(=O)c2ccco2)n1,-0.845
21,O=C(COC(=O)C1CCCN1C(=O)C12CC3CC(CC(C3)C1)C2)c1ccc(Br)cc1 (stereo not shown),18.2
22,Cc1cccc(N(C)C(=O)c2cnn(-c3ccccc3)c2C)c1,1.18
